Results as given in PubChem BioAssay (NCATS).
The inconclusive results got no clear call from the source; some entries with a clear call stand among them for comparison. For some of these results: No potency is given beside an inconclusive call; the fits are too rough. The source made the active and inactive calls. Unless noted, the call rests on the fitted dose curve; in most records, active means well fitted curve in the direction sought with a large enough effect; inconclusive means small, poorly fitted or top-dose-only effect, or another doubt; inactive means no such curve, though single readings can be large; an effect the other way counts as inactive or inconclusive.

Key:
[1] = biological target: Peptidyl-prolyl cis-trans isomerase NIMA-interacting 1 (Homo sapiens) (UniProt Q13526); assay: qHTS Validation Assay to Find Inhibitors of Pin1 (AID 504536; active means well fitted inhibition curve with a large enough effect in the polarisation, with a control signal flat, not every such curve was filed as active; inconclusive means small, poorly fitted or top-dose-only effect, or effect the other way; the % refers to the polarisation; further: potency means the concentration at half of the fitted maximal effect)
Procedure, shortened: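 Fluorescence polarization competition: compounds (titration) displace HiFluor-488-labeled Pin1-1b peptide from Pin1 (0.3 uM final) in pH 7.5 HEPES buffer with DTT, 10 min at room temperature; %Activity normalized to no-enzyme wells, curves fitted.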

[2] = qHTS for Inhibitors of ATXN expression: Validation of Cytotoxic Assay (AID 588349); further: potency means the concentration at half of the fitted maximal effect
Procedure, shortened: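 Toxicity of test compounds toward HEK293 cells is scored from cellular ATP content measured by CellTiter Glo. Cells receive titrated doses and incubate 72 hr at 37 degrees C beforehand.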

[3] = qHTS for Inhibitors of ATXN expression: Validation (AID 588378); further: nearly all actives have a fitted effect of over 75% in size; further: potency means the concentration at half of the fitted maximal effect
Procedure, shortened: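 After a 2 h attachment and 24 h compound incubation, HEK293-ATXN2-FFLuc wells are read for fluorescence at 405 nm excitation/525 nm emission as a viability measure, then for Bright-Glo luminescence reflecting ATXN2 expression.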

[4] = biological target: ATPase family AAA domain-containing protein 5 (Homo sapiens) (UniProt Q96QE3); assay: Validation screen for small molecules that inhibit ELG1-dependent DNA repair in human embryonic kidney (HEK293T) cells expressing luciferase-tagged ELG1 (AID 493107); details: HEK293T ELG1-luciferase level, luminescence, 5-fluorouridine co-treatment, 16 h; series mostly up to 46.1 µM; further: nearly all actives have a fitted effect of over 70% in size; further: potency means the concentration at half of the fitted maximal effect
Procedure, shortened: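 Compounds reducing 5-fluorouridine-driven ELG1-luciferase signal in HEK293T cells were scored; exposure lasted 16 hr at 37 °C with luminescence detected via ONE-Glo.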

[5] = biological target: Ubiquitin carboxyl-terminal hydrolase 1 (Homo sapiens) (UniProt O94782); assay: Inhibitors of USP1/UAF1: Pilot qHTS (AID 504865); further: potency means the concentration at half of the fitted maximal effect;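 further: rhodamine fluorescence freed from ubiquitin-rhodamine substrate followed over time; nearly all actives have a fitted effect of over 35% in size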
Procedure, shortened: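 Enzyme-free wells gave the negative control, while test wells held 1nM USP1/UAF1 preincubated with compound for 15 min at room temperature. Ub-Rho at 150nM final started the reaction, and fluorescence at 480/540 nm was recorded kinetically.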

[6] = Nrf2 qHTS screen for inhibitors: Validation (AID 493153; active means well fitted inhibition curve with a large enough effect in the main read-out, with a control signal flat, not every such curve was filed as active; inconclusive means small, poorly fitted or top-dose-only effect, or effect the other way, or a change in a side signal; inactive means no such curve, though single readings can be large or run the other way; further: potency means the concentration at half of the fitted maximal effect)
Procedure, shortened: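 In this counterscreened reporter format, each well gives two signals: CellTiter-Fluor fluorescence for cytotoxicity and ARE-luciferase luminescence for Nrf2 function. A549 ARE_Fluc cells in 5% FBS OPTI-MEM were exposed to compound titrations for 18-24 h.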

[7] = biological target: Phosphoglycerate kinase, glycosomal (Trypanosoma brucei brucei) (UniProt P07378); assay: qHTS Validation Assay to Find Inhibitors of Phosphoglycerate Kinase (AID 504547)
Procedure, shortened: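 Luminescence end-point (Kinase-Glo Plus, 10 min) after a 60 min room-temperature coupled reaction. GAPDH at 100nM final supplies 1,3-BPG to PGK. Buffer: 100mM TEA pH 7.6, 5mM MgCl2, 0.01% Tween-20. Wells lacking PGK served as controls.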

[8] = Validation screen for small molecules that induce DNA re-replication in SW480 colon adenocarcinoma cells (AID 504364)
Procedure, shortened: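 Hoechst-stained SW480 nuclei, imaged at 405 nm excitation after 48 hr compound exposure, were counted for elevated DNA content as the re-replication signal.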

[9] = biological target: phosphoglycerate mutase (Leishmania major) (UniProt Q4Q090); assay: qHTS Validation Assay to Find Inhibitors of Phosphoglycerate Mutase (AID 504548); details: Potency: inhibition qHTS; further: potency means the concentration at half of the fitted maximal effect
Procedure, shortened: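 Lm PGAM at 1.25 nM final with substrate in 100 mM TEA pH 7.6, 5 mM MgCl2, 0.01% Tween-20; 45 min at room temperature. Kinase-GloPlus added, 10 min, end-point luminescence read.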
Tags describe the fitted curve by direction and shape or compound fluorescence and quenching.

UniProt O94782, sequence (O94782 whole entry, looked up): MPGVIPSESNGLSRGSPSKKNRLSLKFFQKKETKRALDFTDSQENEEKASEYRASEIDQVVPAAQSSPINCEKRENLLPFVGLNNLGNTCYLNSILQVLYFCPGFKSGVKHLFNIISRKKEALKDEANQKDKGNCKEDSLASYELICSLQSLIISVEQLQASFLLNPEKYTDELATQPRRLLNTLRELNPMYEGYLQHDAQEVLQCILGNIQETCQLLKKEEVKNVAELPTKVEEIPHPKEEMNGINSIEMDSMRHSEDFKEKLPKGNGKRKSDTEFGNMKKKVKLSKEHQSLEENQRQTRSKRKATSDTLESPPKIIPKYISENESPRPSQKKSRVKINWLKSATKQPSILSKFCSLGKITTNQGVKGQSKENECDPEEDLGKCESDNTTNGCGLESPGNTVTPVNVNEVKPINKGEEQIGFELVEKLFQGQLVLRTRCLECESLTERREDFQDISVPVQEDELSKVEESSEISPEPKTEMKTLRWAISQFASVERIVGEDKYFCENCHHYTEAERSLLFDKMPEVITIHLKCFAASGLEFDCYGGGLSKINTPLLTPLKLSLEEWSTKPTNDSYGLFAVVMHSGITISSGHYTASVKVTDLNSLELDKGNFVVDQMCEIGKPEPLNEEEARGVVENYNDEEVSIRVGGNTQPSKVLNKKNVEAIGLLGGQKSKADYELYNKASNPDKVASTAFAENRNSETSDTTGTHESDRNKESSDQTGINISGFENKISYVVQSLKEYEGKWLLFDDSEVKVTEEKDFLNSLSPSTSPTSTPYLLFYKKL
UniProt Q96QE3, sequence (Q96QE3 whole entry, looked up, the tested form may be a part): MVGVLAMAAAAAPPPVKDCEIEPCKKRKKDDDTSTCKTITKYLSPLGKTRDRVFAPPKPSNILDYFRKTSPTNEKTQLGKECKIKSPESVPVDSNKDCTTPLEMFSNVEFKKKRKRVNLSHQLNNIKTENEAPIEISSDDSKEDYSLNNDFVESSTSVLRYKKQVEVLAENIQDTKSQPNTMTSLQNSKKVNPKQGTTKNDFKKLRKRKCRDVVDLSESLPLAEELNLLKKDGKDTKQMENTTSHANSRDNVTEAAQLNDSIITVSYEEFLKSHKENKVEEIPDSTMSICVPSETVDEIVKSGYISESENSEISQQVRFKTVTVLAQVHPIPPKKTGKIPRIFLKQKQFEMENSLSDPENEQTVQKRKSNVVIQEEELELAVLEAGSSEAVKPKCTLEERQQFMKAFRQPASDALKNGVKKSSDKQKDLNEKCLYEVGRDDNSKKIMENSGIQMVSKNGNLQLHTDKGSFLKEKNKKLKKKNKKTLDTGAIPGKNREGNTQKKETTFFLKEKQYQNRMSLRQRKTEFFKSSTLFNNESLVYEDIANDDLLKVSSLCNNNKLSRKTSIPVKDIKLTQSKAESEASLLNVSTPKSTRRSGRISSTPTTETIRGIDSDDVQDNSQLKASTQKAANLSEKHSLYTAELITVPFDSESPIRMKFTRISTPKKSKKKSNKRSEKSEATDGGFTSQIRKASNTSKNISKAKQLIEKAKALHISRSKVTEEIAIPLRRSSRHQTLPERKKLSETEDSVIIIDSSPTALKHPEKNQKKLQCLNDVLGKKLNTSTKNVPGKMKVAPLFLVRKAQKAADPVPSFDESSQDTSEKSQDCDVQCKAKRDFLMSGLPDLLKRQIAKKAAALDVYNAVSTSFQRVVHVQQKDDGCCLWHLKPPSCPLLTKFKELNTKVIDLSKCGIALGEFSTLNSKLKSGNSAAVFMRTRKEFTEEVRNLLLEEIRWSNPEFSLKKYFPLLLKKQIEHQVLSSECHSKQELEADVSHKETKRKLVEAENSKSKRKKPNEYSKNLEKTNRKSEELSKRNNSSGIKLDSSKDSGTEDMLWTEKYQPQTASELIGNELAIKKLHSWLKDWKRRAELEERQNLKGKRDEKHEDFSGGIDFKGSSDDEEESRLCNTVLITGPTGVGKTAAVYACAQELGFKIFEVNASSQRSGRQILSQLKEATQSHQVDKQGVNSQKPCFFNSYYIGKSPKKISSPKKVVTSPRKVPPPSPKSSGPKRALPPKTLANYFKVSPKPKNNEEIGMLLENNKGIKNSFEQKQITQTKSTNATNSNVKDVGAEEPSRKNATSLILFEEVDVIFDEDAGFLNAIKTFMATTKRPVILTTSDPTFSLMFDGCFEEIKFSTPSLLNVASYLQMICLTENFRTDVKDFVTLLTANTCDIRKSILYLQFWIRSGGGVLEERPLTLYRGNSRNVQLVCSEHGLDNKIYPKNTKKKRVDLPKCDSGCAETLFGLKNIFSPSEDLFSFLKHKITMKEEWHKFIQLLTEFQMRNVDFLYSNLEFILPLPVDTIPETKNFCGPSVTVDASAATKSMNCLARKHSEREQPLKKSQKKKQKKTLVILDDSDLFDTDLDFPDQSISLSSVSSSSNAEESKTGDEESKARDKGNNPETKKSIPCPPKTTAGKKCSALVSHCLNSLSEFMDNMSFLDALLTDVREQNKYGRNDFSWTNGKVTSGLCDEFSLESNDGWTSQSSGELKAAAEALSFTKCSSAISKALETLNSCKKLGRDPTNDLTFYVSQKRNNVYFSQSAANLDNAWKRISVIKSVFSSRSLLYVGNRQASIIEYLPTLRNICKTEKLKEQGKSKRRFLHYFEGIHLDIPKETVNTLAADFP
UniProt Q13526, sequence (Q13526 whole entry, looked up): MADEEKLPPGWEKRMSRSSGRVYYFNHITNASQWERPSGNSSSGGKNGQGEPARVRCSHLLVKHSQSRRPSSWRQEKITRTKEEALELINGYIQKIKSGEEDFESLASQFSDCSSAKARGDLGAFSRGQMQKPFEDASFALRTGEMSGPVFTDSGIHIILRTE
UniProt P07378, sequence (P07378 whole entry, looked up): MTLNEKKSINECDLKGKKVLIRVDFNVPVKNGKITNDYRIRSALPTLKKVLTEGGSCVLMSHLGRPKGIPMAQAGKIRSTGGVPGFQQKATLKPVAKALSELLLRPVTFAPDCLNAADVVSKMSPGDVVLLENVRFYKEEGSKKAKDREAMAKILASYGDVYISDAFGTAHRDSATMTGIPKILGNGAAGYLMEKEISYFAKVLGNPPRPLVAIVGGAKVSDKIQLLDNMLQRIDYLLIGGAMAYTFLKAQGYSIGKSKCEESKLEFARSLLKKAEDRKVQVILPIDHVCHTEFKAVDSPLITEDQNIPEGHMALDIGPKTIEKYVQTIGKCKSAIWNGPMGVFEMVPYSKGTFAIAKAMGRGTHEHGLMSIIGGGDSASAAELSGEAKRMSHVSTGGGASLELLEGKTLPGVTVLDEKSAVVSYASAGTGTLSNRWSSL

CN1CCN(C2=Nc3cc(Cl)ccc3Nc3ccccc32)CC1
Potency [1]: inactive

CC(C)NC[C@@H](O)c1ccc(O)c(O)c1
Potency [1]: inconclusive [falling, partial curve] | Potency [2]: inconclusive [cytotoxic, partial curve, poor fit] | Potency [3]: inconclusive [inhibitor, single point]

O=C(O)c1cc([N+](=O)[O-])ccc1NCCCc1ccccc1
Potency [4]: inactive | Potency [5]: inconclusive [inhibitor, partial curve, poor fit] | Potency [2]: inconclusive [cytotoxic, single point]

CC1(C)NC(=O)N(c2ccc([N+](=O)[O-])c(C(F)(F)F)c2)C1=O
Potency [6]: inconclusive [inhibitor, single point] | Potency [7]: inactive

O=c1cc(N2CCOCC2)oc2c(-c3ccccc3)cccc12
Potency [4]: inconclusive [activator, partial curve] | Potency [6]: active: 9.2 µM

CC(=O)NCCc1c[nH]c2ccc(O)cc12
Potency [4]: inactive | Potency [3]: inactive

O=C(O)c1cccnc1Nc1cccc(C(F)(F)F)c1
Potency [4]: inactive | Potency [6]: inconclusive [inhibitor, partial curve, poor fit] | Potency [8]: inactive | Potency [5]: inactive | Potency [3]: inactive

CC(C)NCC(O)c1ccc(O)c(O)c1 (stereo not given)
Potency [4]: inactive | Potency [9]: inconclusive [inhibitor, partial curve, poor fit]

c1ccc(C(NCCNC(c2ccccc2)c2ccccc2)c2ccccc2)cc1
Potency [6]: inconclusive [inhibitor, single point] | Potency [5]: inconclusive [inhibitor, full curve, poor fit] | Potency [2]: inconclusive [cytotoxic, single point] | Potency [3]: inconclusive [inhibitor, partial curve, poor fit]

CCCCC1C(=O)N(c2ccccc2)N(c2ccc(O)cc2)C1=O (stereo not given)
Potency [5]: inconclusive [inhibitor, partial curve, poor fit]
